Reference: ChEMBL document CHEMBL4888484, “Replenishing the malaria drug discovery pipeline: Screening and hit evaluation of the MMV Hit Generation Library 1 (HGL1) against asexual blood stage Plasmodium falciparum ,using a nano luciferase reporter read-out” (2022)
Among all 150,000 compounds or so, about 540 (0.36%) showed an effect of 50% or more. The list shows a part of the results.

tested on: Plasmodium falciparum; test: Primary screen in NF54 nanoGlo assay, in single point, at 2uM, 72h; a lower Z score goes with more inhibition; assay type: functional, Erythrocyte; settings: timepoint 72 hour

| SMILES | % Inhibition [%] | Z score |
| --- | --- | --- |
| O=C(NC1CCOCC1)N1CCC[C@@H]1CO | -2 | 0.21 |
| CNC(=O)NCC1CCC2(CCOCC2)C1O (stereo unspecified) | -15 | 2.08 |
| CO[C@@H](CNS(=O)(=O)c1ccc(C)cc1Br)C(C)C | 0 | 0.03 |
| COc1ccccc1-c1noc(-c2c(C)nc3ccccn23)n1 | -13 | 1.73 |
| O=C(c1c[nH]c(=O)c(Cl)c1)N1CCC[C@H]1c1nc(-c2ccccc2)no1 | -7 | 0.92 |
| C#CC(CC)(CC)NC(=O)COc1ccc(Cl)cc1 | 6 | -0.73 |
| COc1ccc2cc1Oc1cccc(c1)CO[C@H]1CCN(C(=O)c3cccnc3)C[C@H]1NC(=O)CC2 | -15 | 2.79 |
| COC(C)CS(=O)(=O)NC1CCC(C)CC1C (stereo unspecified) | -9 | 1 |
| Cc1nnc(-c2ccccc2-c2nc(-c3ccccn3)no2)o1 | -13 | 1.9 |
| O=C(CC1CC1)N1C2CCC1CC(n1ccnn1)C2 (stereo unspecified) | -5 | 0.76 |
| c1ccc2c(c1)CCN2CCNC1CCN(c2ccc3c(c2)OCO3)CC1 | -8 | 1.24 |
| Cc1sc2ncnc(N[C@H]3CCN(Cc4ccccc4)C3)c2c1C | -12 | 1.49 |
| CC(C)CN(Cc1cnn(C)c1)C(=O)c1cccc(-c2ccc(=O)n(C)n2)c1 | -13 | 2.54 |
| O=c1cc(-c2ccccc2)ncn1Cc1cccc(Cl)c1 | 6 | -0.73 |
| CCN1CCN(C(=O)c2sc(C)cc2OC)[C@H]2CS(=O)(=O)C[C@H]21 | 11 | -1.55 |
| O=C(C[C@@H]1COC2(C1)CN(S(=O)(=O)c1ccc(F)cc1F)C2)N1CCOCC1 | -5 | 0.73 |
| CN1CCN2CCN(Cc3ccc4c(c3)CCO4)C[C@H]2C1=O | -1 | 0.06 |
| CC1(C)CCC[C@@]1(O)CNC(=O)c1ccc(OC(F)F)cc1F | -3 | 0.45 |
| Cc1cc([C@H](C(=O)O)N(C)C/C=C/c2ccccc2)ccc1F | -6 | 0.72 |
| CCCN(CC1CC1)C(=O)[C@@H]1CCCCC(=O)N1Cc1cccc(OC)c1 | -8 | 1.34 |
| O=C(COc1ccccc1)NCC(=O)Nc1ccc2[nH]c(=O)[nH]c2c1 | -9 | 1.07 |
| COCC1(C(=O)N2CC[C@H](C3CCCCC3)C2)CCC1 | -19 | 2.24 |

| SMILES | % Inhibition [%] | Z score |
| --- | --- | --- |
| Cc1ccc(Cl)cc1N1C[C@@H](C(=O)Nc2nonc2C)CC1=O | -3 | 0.38 |
| CC(C)(C)C1CNC(=O)C1C(=O)Nc1cccc2nsnc12 (stereo unspecified) | -6 | 0.95 |
| CCOC1CC(O)C12CCN(c1nc(C)ns1)CC2 (stereo unspecified) | -10 | 1.28 |
| COCCc1nc(-c2cccc3c(C)c(C)[nH]c23)n(C[C@H]2COCCO2)n1 | -20 | 2.04 |
| NC(=O)Cc1nc(C2CCC2)n(-c2ccc(OC(F)(F)F)cc2)n1 | -9 | 1.12 |
| Clc1ccc2nc(CN3CCO[C@@H](Cn4cccn4)C3)cn2c1 | -11 | 1.14 |
| COc1cc(C(=O)Nc2cnc3ccccc3c2)ncn1 | -1 | 0.22 |
| COc1c[nH]c(C(=O)Nc2ccc(C(F)(F)F)cn2)cc1=O | -15 | 1.94 |
| O=c1[nH]nc([C@H](O)c2ccccc2)n1Cc1cccs1 | -11 | 1.46 |
| Cc1nc(CN2CCC[C@H]2C(=O)Nc2ccc(-c3cscn3)cc2)c[nH]1 | -2 | 0.28 |
| C[C@H]1[C@H](c2ccccc2)OC(c2ccccc2O)N1C (stereo partly specified) | 5 | -0.75 |
| CS(=O)(=O)n1c(N)nc2ccccc21 | -6 | 0.83 |
| CCN(CC1CCOCC1)c1cc(C2CCNCC2)nc(C)n1 | 3 | -0.59 |
| CCOC(=O)CCC(=O)NCCn1cc(-c2ccncc2)cn1 | -3 | 0.42 |
| CC(NC(=O)C1C2CCC(C2)N1S(=O)(=O)c1ccccc1)c1ccccc1 (stereo unspecified) | -1 | 0.17 |
| O=C(Cc1nnc(-c2ccsc2)o1)Nc1ccccc1F | -5 | 0.52 |
| c1coc(CNc2nnc(C3CCCCC3)o2)c1 | -7 | 0.82 |
| Nc1ccccc1C(=O)N[C@H]1CC[C@H](O)CC1 | -10 | 1.46 |
| CC[C@@]1(C)Oc2ccc(NCc3ccccn3)cc2O1 | -15 | 1.68 |
| O=C(NCCN1CCCOCC1)N[C@@H](C1CCCC1)C(F)(F)F | -3 | 0.41 |
| CC(C)CCN1C(=O)[C@@H]2C(C(=O)Nc3ccc(C(C)C)cc3)[C@@H]3C=C[C@]2(O3)C1C(=O)NC1CCCCC1C (stereo partly specified) | 6 | -0.99 |
